Among all 52,000 compounds or so, about 1,700 (3.3%) were called active. Cut-off read from the data, not from the text of the source: active = survival mostly below about 52% (no sharp cut-off); inactive = mostly above about 56%. Some of the results follow.

In this experiment the test system is Wild type. Briefly: growth inhibition of S. aureus wild type versus tarO mutant, primary screen, teichoic acid synthesis inhibitors, RN4220, OD600 (AID 463173). The note with it: S. aureus RN4220 wild type/DeltatarO growth, OD600, 18 h, active compounds read low, screened at 18.75 µg/mL (by protocol).
`COc1ccc(-c2nc(CCNC(=O)c3ccccc3)cs2)cc1OC`: the survival is inactive: 134%.
For the molecule `Cc1cccc(C)c1NC(=O)CCCn1c(=O)c2cccn2c2ccccc21`, the survival is inactive: 76%.
Under `Cc1nn(-c2ccccc2)c(OC(=O)c2ccccc2Cl)c1S(=O)(=O)c1ccccc1` stands inactive: 56%; under `CCOc1ccc(-n2cc(-c3ccccc3)c3c(NC4CCCCC4)ncnc32)cc1`, inactive: 85%.
Then `Cc1ccc(CNC(=O)CCS(=O)(=O)c2ccc3c(c2)CC(C)N3C(=O)C2CC2)cc1` (stereo unspecified), with inactive: 63%.
On to `CCOc1ccc(NC(=O)CSC2=Nc3ccccc3C3=NC(CCC(=O)NCc4cccs4)C(=O)N23)cc1` (stereo unspecified), for which the survival was inactive: 65%.
For the molecule `CCOc1ccc(-c2nnc(SCC(=O)NCc3ccc(C)cc3)nc2-c2ccc(OCC)c(OC)c2)cc1OC`, the survival was inactive: 60%.
Consider `COc1ccc2c(c1)c1c(c(=O)n(-c3cccc(Cl)c3)c(=O)n1CC(=O)NCC1CCCO1)n2C` (stereo unspecified), for which the survival was inactive: 72%.
`COCCNC(=O)Cn1cnc2sc(C)c(S(=O)(=O)N3CCN(c4ccccc4OC)CC3)c2c1=O`: the survival was inactive: 137%.
With `CCc1nn2c(=O)cc(COC(=O)c3ccccc3NC(=O)COc3ccc(F)cc3)nc2s1`, the survival was inactive: 73%.
Regarding `CCOC(=O)c1[nH]c(C)c(CCC(=O)Nc2cccc(C(F)(F)F)c2)c1C`, the survival was inactive: 82%.
In the case of `COc1cc(CNCCSc2nnnn2C)ccc1OCc1ccc(F)cc1`, the survival is inactive: 105%.
Then `CC(CNC(=O)c1nnc(Cc2cccc(F)c2)o1)c1ccccc1` (stereo unspecified), with inactive: 89%; and `CC1=CC(C)C(/C=N/O)C(C)C1` (stereo unspecified), with inactive: 104%.
Then `O=c1[nH]c(=O)n(-c2ccc(Cl)cc2)c(O)c1/C=N/n1cnnc1`, with inactive: 108%; and `CC(=O)N(CN1C(=O)c2ccccc2C1=O)c1ccccc1`, with inactive: 107%.
Regarding `c1ccc2c(c1)COC1(CCCCC1)N2`, the survival is inactive: 101%.
In the case of `COc1ccccc1C(=O)NCCSc1c(C)[nH]c2ccccc12`, the survival is inactive: 52%.
Take `COc1ccc(N2CC(NC(=O)C3CC3)CC2=O)cc1` (stereo unspecified): the survival was inactive: 73%.
For `CCC(NC(=O)Nc1ccc(OC)c(OC)c1)c1c(-n2cccc2)sc2c1CCN(C)C2` (stereo unspecified), the survival is inactive: 65%.
On to `CC(=O)c1cccc(NC(=O)[C@H](Cc2ccccc2)N2Cc3ccccc3C2=O)c1`, for which the survival is inactive: 81%.
Then `COc1ccc(CCNC(=O)c2ccc3c(c2)N=C(C)c2cc(C)ccc2S3)cc1OC`, with inactive: 77%.
With `CCc1ccc(NC(=O)Cn2c(=O)c(CNc3ccccc3)cc3cc(OC)c(OC)cc32)cc1`, the survival was inactive: 80%.
Under `COc1cccc(NC(=O)CSc2nc(=O)n(Cc3ccccn3)c3c2CCC3)c1` stands inactive: 68%.
On to `O=c1oc2ccc3ccccc3c2cc1-c1nnc(Nc2ccc(Cl)cc2Cl)s1`, for which the survival was inactive: 72%.
On to `COc1ccc(-c2nc3ccccc3o2)cc1NC(=O)C(C)(C)Oc1ccc(Br)cc1`, for which the survival is active: 0%.
Under `Cc1ccc(Cn2nnc3c(=O)[nH]c(C4CCCN(C(=O)c5ccco5)C4)nc32)cc1` (stereo unspecified) stands inactive: 81%; under `Cc1cccc(NC(=O)C2CCCN(S(=O)(=O)c3c(C)[nH]c(=O)[nH]c3=O)C2)c1C` (stereo unspecified), inactive: 129%.
As for `COc1cccc(N2CCN(C(=O)CCS(=O)(=O)c3ccc4c(c3)CC(=O)N4C)CC2)c1`, the survival was inactive: 89%.
With `O=c1oc2ccccc2n1CCCOc1ccccc1Cl`, the survival is active: 0%.
In the case of `O=C(Cn1c(=O)oc2cc(S(=O)(=O)N3CCCC3)ccc21)NCc1ccc(Cl)cc1`, the survival is inactive: 138%.
As to `CS(=O)(=O)N1CCc2cc(C(=O)Nc3ccc(Cl)c(C(F)(F)F)c3)ccc21`, the survival was inactive: 37%.
Regarding `Cc1ncc(CO)c2c1Oc1nc(-c3ccccc3)nc(SCC(=O)N3CCCCC3)c1C2`, the survival is inactive: 97%.
For `CCN(CC)C(=O)Cn1c(=O)n(Cc2ccc(C(=O)NCc3ccc(C)cc3)cc2)c(=O)c2ccccc21`, the survival is inactive: 68%.
Under `O=C1OC(c2ccccc2)=N/C1=C1\OC(=O)c2ccccc21` stands inactive: 104%; under `Cc1ccc(NC(=O)c2cn3c4c(ccc(Cl)c4c2=O)OC(C)C3)cc1C` (stereo unspecified), inactive: 73%; under `CCOCCCNC(=O)c1cc2c(=O)n(C)c3ccccc3c2n1C`, inactive: 82%.
On to `COc1ccc(NC(=O)Cn2c(=O)n(-c3cccc(C)c3)c(=O)c3c2c2cc(C)ccc2n3C)cc1Cl`, for which the survival was inactive: 86%.
Take `O=C(C1CCC(CNS(=O)(=O)c2ccc(Br)s2)CC1)N1CCN(c2ccccc2Cl)CC1` (stereo unspecified): the survival is inactive: 80%.
Under `CCOc1cc2sc(N3CCC(C(=O)Nc4ccccc4C(=O)OC)CC3)nc2cc1Br` stands inactive: 85%; under `Cc1ccc(NC(=O)COc2ccc(-c3nn(C)c(=O)c4ccccc34)cc2)cc1`, inactive: 66%; under `CCOC(=O)c1cccc(NC(=O)c2cc3cc4cc(OC)ccc4nc3s2)c1`, inactive: 81%.
On to `COc1ccc(C)cc1NC(=O)CN1C(=O)COc2ccc(S(=O)(=O)N3CCOCC3)cc21`, for which the survival is inactive: 97%.
Take `O=C(COCc1cc(-c2cccs2)on1)Nc1cc(Cl)ccc1O`: the survival was inactive: 79%.
In the case of `CCOC(=O)c1sc(NC(=O)C(C)Oc2ccc(OC)cc2)c(C(=O)OCC)c1C` (stereo unspecified), the survival is inactive: 88%.
For the molecule `COc1ccc(C(=O)Nc2cc(-c3ccccc3)nn2-c2ccccc2)cc1`, the survival was inactive: 70%.
In the case of `CN(C)c1ccc(CNC(=O)C2CCCN(S(=O)(=O)c3ccc4c(ccn4C)c3)C2)cc1` (stereo unspecified), the survival was inactive: 88%.
Under `Cc1ccc(CNC(=O)C2CCN(S(=O)(=O)Cc3ccccc3)CC2)cc1` stands inactive: 85%; under `c1ccc(-c2nc3cc(Cc4ccc5oc(-c6ccccn6)nc5c4)ccc3o2)nc1`, inactive: 113%.
`COc1ccc(C2N=C(N)Nc3nc4ccccc4n32)c(OC)c1OC` (stereo unspecified): the survival was inactive: 71%.
Regarding `O=C(CN1CCN(Cc2ccc3c(c2)OCO3)CC1)N1c2ccccc2CCc2ccccc21`, the survival is inactive: 99%.
Take `CCN1CCC(N(Cc2cccc(OC)c2)C(=O)Nc2cccc(C)c2C)CC1`: the survival is active: -3%.
Consider `CC1=Nc2cc(C(=O)NCc3ccc(C)cc3)ccc2Sc2ccc(Cl)cc21`, for which the survival was inactive: 73%.
Take `CCc1ccc(NC(=O)N2CCN(Cc3nc4ccc(C)cc4o3)CC2)cc1`: the survival is inactive: 71%.
With `CCN(CC)C(=O)CN1C(=O)COc2ccc(S(=O)(=O)N3CCOCC3)cc21`, the survival is inactive: 76%.
Consider `CCCCNC(=O)Nc1ccc2c(c1)N(C)C(=O)c1ccccc1S2`, for which the survival is inactive: 78%.
Consider `O=C(CSc1nc2c([nH]c3ccccc32)c(=O)n1-c1ccc(Cl)cc1)NC1CCCCC1`, for which the survival is inactive: 72%.
For `COc1ccc(NC(=O)Cn2nnc(C(=O)NCc3ccco3)c2N)c(OC)c1`, the survival is inactive: 131%.
Under `COc1ccccc1NC(=O)c1c(C)cc(C)nc1SCC(=O)Nc1ccc(C)cc1` stands inactive: 78%.
As to `CC(=O)Nc1ccc(S(=O)(=O)NCC2CCC(C(=O)NCc3ccccc3)CC2)cc1` (stereo unspecified), the survival was inactive: 82%.
As for `CCOc1cc(C(Nc2cc(C)ccn2)c2ccc3cccnc3c2O)ccc1OC` (stereo unspecified), the survival was inactive: 145%.
For the molecule `COC(=O)C1=C(C)NC(=O)/C1=C\c1ccc(C)cc1`, the survival is inactive: 110%.
Consider `Cc1cc(Nc2cccc(Br)c2)n2c(nc3ccccc32)c1C#N`, for which the survival is inactive: 67%.
For `Cc1ccc(N2CCN(C(=O)c3cn(C)c4ccc(S(=O)(=O)N5CCCC5)cc4c3=O)CC2C)cc1` (stereo unspecified), the survival was inactive: 134%.
Under `CCOc1ccc(NC(=O)CN2C(=O)c3ccccc3Sc3ccc(C(=O)OC)cc32)cc1` stands inactive: 81%; under `O=C(NCc1ccco1)c1ccc(S(=O)(=O)N2CCCc3ccccc32)cc1`, inactive: 109%; under `Cc1cc(C)cc(-n2c(SCC(=O)NCc3ccc(F)cc3)nc3c([nH]c4ccccc43)c2=O)c1`, inactive: 63%.
For the molecule `Cc1ccc2c(c1)c(=O)c1ccccc1n2CCCC(=O)Nc1ccc(Cl)c(Cl)c1`, the survival is inactive: 58%.
For the molecule `COc1cc(NC(=O)CSc2nc(-c3ccccc3)no2)cc(OC)c1`, the survival is inactive: 71%.
For the molecule `COC(=O)c1sc(-c2ccccc2)cc1NC(=O)c1cccc(Cl)c1`, the survival was inactive: 38%.
With `Cc1cccc(C)c1NC(=O)C(=O)NCC(c1cccnc1)N1CCc2ccccc21` (stereo unspecified), the survival was inactive: 84%.
Take `COc1cccc(NC(=O)CN2C(=O)CC(c3ccco3)Sc3ccccc32)c1` (stereo unspecified): the survival was inactive: 84%.
For the molecule `O=C(C1CCC(Cn2c(=O)c3sccc3n(Cc3ccccc3F)c2=O)CC1)N1CCOCC1` (stereo unspecified), the survival is inactive: 71%.
`COc1cc(NC(=O)c2cc3c(=O)n(Cc4ccco4)ccc3nc2C)cc(OC)c1OC`: the survival was inactive: 63%.
As for `CCOC(=O)c1c(NC(=O)c2ccc(S(=O)(=O)N(CC(C)C)CC(C)C)cc2)sc2c1CCN(CC)C2`, the survival was inactive: 65%.
On to `CCN(CC)c1ccc(NC(=O)C2CCN(S(=O)(=O)c3ccc4c(c3)oc(=O)n4C)CC2)c(C)c1`, for which the survival is inactive: 84%.
As for `CCOC(=O)N1CCc2c(sc(NCc3cccs3)c2C(=O)Nc2cc(Cl)ccc2OC)C1`, the survival was inactive: 83%.
Turning to `Cc1ccc(S(=O)(=O)N2C(=S)SCC2(C)C)cc1`, the survival is inactive: 107%.
Consider `COc1ccccc1N1CCN(C(=O)c2ccc3c(c2)N(Cc2cc(C)ccc2C)C(=O)c2ccccc2S3(=O)=O)CC1`, for which the survival was inactive: 81%.
Regarding `COc1ccc(CN(C(=O)c2cc(=O)c3ccccc3o2)C2CCS(=O)(=O)C2)cc1OC` (stereo unspecified), the survival is inactive: 118%.
For the molecule `Cc1cccc(NC(=O)C(NS(=O)(=O)c2cccc3nsnc23)c2ccccc2)c1C` (stereo unspecified), the survival is inactive: 90%.
Turning to `CC(C)(C)OC(=O)N1CCC(c2c(C(=O)N3CCN(c4ccccn4)CC3)cnn2-c2cccc(F)c2)CC1`, the survival is inactive: 90%.
For `Cc1ccc(NC(=O)Cn2c(=O)n(Cc3ccco3)c(=O)c3sc4ccccc4c32)c(C)c1`, the survival is inactive: 87%.
Take `Cc1ccc(-n2c(C)cc(/C=C(/C#N)c3ccccc3)c2C)cc1`: the survival was inactive: 102%.
For `COc1ccc(N2CCN(S(=O)(=O)c3cc(Br)cc4c3N(C(=O)C3CC3)CC4)CC2)cc1`, the survival was inactive: 90%.
In the case of `CCOC(=O)c1ccc(NS(=O)(=O)c2ccc3c(c2)CCN3C(=O)CC)cc1`, the survival was inactive: 86%.

These data come from PubChem BioAssay AID463173 (ICCB-Longwood Screening Facility, Harvard Medical School, 2010).
